# Results taken from PubChem BioAssay AID588591 (National Center for Advancing Translational Sciences (NCATS), 2011).
# About 4,700 (1.2%) of roughly 390,000 compounds were called active. Inconclusive means that the source gave no clear call. Such entries were picked first, then a sample of the others. The call rests on the fitted dose curve; in most records, active means well fitted inhibition curve with a large enough effect; inconclusive means small, poorly fitted or top-dose-only effect, or another doubt; inactive means no such curve, though single readings can be large or run the other way. A potency beside an inconclusive call is a rough fit, not a confirmed value.
# Molecular target: DNA polymerase eta (Homo sapiens) (UniProt Q9Y253)
# Assay: qHTS for Inhibitors of Polymerase Eta
# Conditions: recombinant Pol eta, fluorescent DNA replication assay; series mostly up to 114 µM
# Method in brief: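 Pol eta at 10 nM preincubated with compounds 15 min at room temperature; reaction started with fluorescent substrate (50 nM final) and read kinetically at 0 and 10 min.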
# Potency means the concentration at half of the fitted maximal effect; tags describe the fitted curve by direction and shape.
# Sequence of UniProt Q9Y253 (Q9Y253 whole entry, looked up): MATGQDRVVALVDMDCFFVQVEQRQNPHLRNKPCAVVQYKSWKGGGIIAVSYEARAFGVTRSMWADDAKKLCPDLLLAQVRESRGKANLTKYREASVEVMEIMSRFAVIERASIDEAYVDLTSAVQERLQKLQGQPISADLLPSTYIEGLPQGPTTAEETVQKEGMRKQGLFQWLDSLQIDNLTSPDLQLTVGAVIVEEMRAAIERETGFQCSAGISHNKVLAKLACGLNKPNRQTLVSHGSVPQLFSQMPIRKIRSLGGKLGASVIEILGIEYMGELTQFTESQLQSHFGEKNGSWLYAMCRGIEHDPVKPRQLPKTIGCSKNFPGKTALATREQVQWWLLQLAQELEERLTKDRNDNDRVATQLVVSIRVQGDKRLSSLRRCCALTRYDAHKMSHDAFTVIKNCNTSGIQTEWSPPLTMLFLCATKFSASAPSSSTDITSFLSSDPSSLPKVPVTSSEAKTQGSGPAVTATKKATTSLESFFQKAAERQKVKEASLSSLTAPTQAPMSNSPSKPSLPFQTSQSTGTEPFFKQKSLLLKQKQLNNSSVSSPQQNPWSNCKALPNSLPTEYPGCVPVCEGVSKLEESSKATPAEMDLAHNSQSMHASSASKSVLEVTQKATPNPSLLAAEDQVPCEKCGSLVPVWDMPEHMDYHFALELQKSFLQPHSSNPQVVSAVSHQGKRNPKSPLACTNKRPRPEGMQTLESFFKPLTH
row,SMILES,Potency
1,N#Cc1ccccc1/C=N/Nc1nc(-c2ccccc2)c2cc(Cl)ccc2n1,"inconclusive: 3.16 µM [inhibitor, partial curve, poor fit]"
2,CC(=O)Nc1ccc(S(=O)(=O)N(CC(=O)NC2CC2)Cc2ccccc2)cc1,"inconclusive: 89.1 µM [inhibitor, partial curve, poor fit]"
3,O=C(Nc1nc2cc3c(cc2s1)OCO3)c1ccc(N2C(=O)CCC2=O)cc1,"inconclusive: 79.4 µM [inhibitor, partial curve, poor fit]"
4,CC(C)(C)c1ccc(OCC(=O)N/N=C/c2ccsc2)cc1,"inconclusive: 56.2 µM [inhibitor, partial curve, poor fit]"
5,O=C(NCc1ccccc1Cl)c1cnc2ccccc2n1,inactive
6,CNC(=O)c1cccc(NC(=O)c2cc(-c3ccccc3)nc3c2cnn3C(C)C)c1,"inconclusive: 79.4 µM [inhibitor, partial curve, poor fit]"
7,CCOC(=O)c1c(N2C(=O)Nc3cc(Cl)c(Cl)cc3N2O)sc2c1CCCCC2,"inconclusive: 79.4 µM [inhibitor, single point]"
8,C/C(=N\NC(=O)c1cc2c(s1)CCC(C)C2)c1ccncc1 (stereo not given),inactive
9,CN(C)c1cccc(C(=O)n2cc(C(=O)c3cc(F)ccc3O)cn2)c1,"inconclusive: 35.5 µM [inhibitor, single point]"
10,N#CC1(NC(=O)Cn2ncc(Cl)c(Cl)c2=O)CCCCC1,"inconclusive: 79.4 µM [inhibitor, partial curve, poor fit]"
11,COc1cccc([C@@H]2Nc3ccc(C(=O)O)cc3[C@@H]3C=CC[C@@H]32)c1OC,inactive
12,COCCn1c(SCC(=O)c2c(N)n(C)c(=O)n(C)c2=O)nc2ccccc21,"inconclusive: 31.6 µM [inhibitor, single point]"
13,CCCCCNS(=O)(=O)c1ccc(N2CCCCS2(=O)=O)cc1,inactive
14,N#Cc1ccc(NC(=O)CCc2nc3ccccc3s2)cc1,"inconclusive: 15.8 µM [inhibitor, full curve, poor fit]"
15,CCOC(=O)CSc1nc(COc2ccccc2)nc2ccccc12,inactive
16,NC(=O)c1ccc(NC(=O)COC(=O)c2cc3c(s2)CCC3)cc1,active: 11.2 µM
17,Cc1n[nH]c(=O)c2c(NC(=O)CSc3nn(-c4ccc(F)cc4)c(=S)s3)oc(C)c12,"inconclusive: 28.2 µM [inhibitor, partial curve, poor fit]"
18,CC(C)C[C@H](NC(=O)c1nc[nH]c1C(=O)NCC(=O)OCc1ccccc1)C(=O)OC(C)(C)C,"inconclusive: 35.5 µM [inhibitor, partial curve, poor fit]"
19,Cc1ccc(CN2CC(C(=O)Nc3cccc(S(=O)(=O)N4CCCCC4)c3)CC2=O)cc1 (stereo not given),"inconclusive: 17.8 µM [inhibitor, single point]"
20,CCN1CCc2c(sc3c2c(NCc2ccco2)nc2nnnn23)C1,"inconclusive: 28.2 µM [inhibitor, single point]"
21,O=S(=O)(c1ccc(Cl)cc1)N1CCCC1c1nc2ccccc2s1 (stereo not given),"inconclusive: 50.1 µM [inhibitor, partial curve, poor fit]"
22,Cc1nnc(N2CCN(c3ccccc3F)CC2)c2c1nnn2Cc1ccccc1Cl,inactive

row,SMILES,Potency
1,COc1ccc(N2Cc3ccccc3C2=NC(=O)c2cccc([N+](=O)[O-])c2)cc1,"inconclusive: 39.8 µM [inhibitor, partial curve, poor fit]"
2,O=C(Cn1ncc(Cl)c(Cl)c1=O)NCC1CCCCC1,"inconclusive: 15.8 µM [inhibitor, full curve, poor fit]"
3,CCOC(=O)N1CCc2c(sc3c2C(=O)NC(c2ccccc2)N3)C1 (stereo not given),"inconclusive: 20 µM [inhibitor, partial curve, poor fit]"
4,O=C(COc1ccccc1)NNc1c2ccccc2nc2ccccc12,"inconclusive: 22.4 µM [inhibitor, single point]"
5,CCOC(=O)Cc1csc(SCC(=O)NC2CCS(=O)(=O)C2)n1 (stereo not given),inactive
6,c1ccc2c(c1)ncn2Cc1nnc2sc(-c3ccc4c(c3)OCO4)nn12,"inconclusive: 14.1 µM [inhibitor, partial curve, poor fit]"
7,CN(CC(=O)Nc1cc(S(=O)(=O)N2CCCC2)ccc1Cl)Cc1ccc2c(c1)OCO2,"inconclusive: 89.1 µM [inhibitor, partial curve, poor fit]"
8,O=C(Nc1ccc2nn(-c3ccccc3)nc2c1)c1ccc2c(c1)OCO2,"inconclusive: 12.6 µM [inhibitor, partial curve, poor fit]"
9,CCCCNC(=O)c1sc(=S)n2c1[nH]c(=O)c1ccc(C(=O)NCCc3ccc(OC)c(OC)c3)cc12,active: 17.8 µM
10,CCCCNC(=O)CNC(=S)N(Cc1ccccc1F)C1CCCCC1,"inconclusive: 89.1 µM [inhibitor, partial curve, poor fit]"
11,Cc1nnc(SCC(=O)NCc2ccc(N(C)C)cc2)c2nn(-c3ccccc3)c(C)c12,inactive
12,COc1ccc(/C=C/C(=O)c2ccc([N+](=O)[O-])o2)cc1OC,"inconclusive: 56.2 µM [inhibitor, partial curve, poor fit]"
13,Cc1ccc(CNC(=O)CSc2nc(=O)n3ccccc3n2)cc1,inactive
14,CCCN(C(=O)Cc1c(C(=O)O)[nH]c2ccc(Cl)cc12)c1ccc(OCC)cc1,inactive
15,CCCn1nc(NC(=O)c2cccs2)c2cc3cc(OC)ccc3nc21,"inconclusive: 15.8 µM [inhibitor, full curve, poor fit]"
16,O=C(CNC(=O)c1cccs1)N/N=C/c1ccc(O)cc1O,"inconclusive: 89.1 µM [inhibitor, single point]"
17,CC(=O)c1ccc(S(=O)(=O)Nc2ccc(Cl)c(S(=O)(=O)N3CCCC3)c2)cc1,"inconclusive: 20 µM [inhibitor, partial curve, poor fit]"
18,COc1ccccc1NC(=O)CSc1nc2sc(C)c(C)c2c(=O)n1C,inactive
19,CN(Cc1ccco1)C(=O)CSc1nc(C2CC2)n(-c2ccccc2)n1,"inconclusive: 28.2 µM [inhibitor, partial curve, poor fit]"
20,CCCC(C(=O)O)N1C(=O)/C(=C/c2cccn2C)SC1=S (stereo not given),"inconclusive: 15.8 µM [inhibitor, partial curve, poor fit]"
21,COc1ccc2[nH]c(=O)c(CNc3ccccc3)cc2c1,"inconclusive: 6.31 µM [inhibitor, partial curve, poor fit]"
22,Cc1ccc(CSCC(=O)N/N=C/c2ccc(OCC(=O)Nc3ccc(C)cc3)cc2)cc1,"inconclusive: 8.91 µM [inhibitor, full curve, poor fit]"

row,SMILES,Potency
1,O=C(CSc1nc(=O)[nH]c2c1CCCC2)NCc1ccc(Cl)cc1,inactive
2,COc1ccc2cc(S(=O)(=O)NCc3cccnc3)ccc2c1,inactive
3,O=S(=O)(O)c1cc(O)c(N=Nc2ccc(O)cc2O)c2ccccc12,active: 10 µM
4,CCCCNS(=O)(=O)c1ccc(NC(=O)C2CCCO2)cc1 (stereo not given),"inconclusive: 25.1 µM [inhibitor, single point]"
5,N#CCSc1n[nH]c2nc3c(c(=O)n12)C1(CCCC1)Cc1ccccc1-3,"inconclusive: 31.6 µM [inhibitor, partial curve, poor fit]"
6,Cc1cc(C)n(-c2nc3cc(Cl)c(Cl)cc3nc2Nc2c(C)cccc2C)n1,inactive
7,Clc1ccc(NN(Cc2ccncc2)c2ccc(Cl)cc2)cc1,inactive
8,Cc1[nH][nH]c(=O)c1C(c1c(C)[nH][nH]c1=O)c1cn(Cc2ccccc2Cl)c2ccccc12,"inconclusive: 35.5 µM [inhibitor, full curve]"
9,N#Cc1ccccc1NC(=O)CC1CCCCC1,"inconclusive: 70.8 µM [inhibitor, partial curve, poor fit]"
10,CCOC(=O)Cc1csc(NC(=O)COc2ccc3ccccc3c2)n1,"inconclusive: 0.708 µM [inhibitor, full curve, poor fit]"
11,O[C@@H]1CN(CC2CCCCC2)[C@@H](c2ccc(Cl)cc2)C[C@H]1n1cc(C2CC2)nn1,"inconclusive: 25.1 µM [inhibitor, partial curve, poor fit]"
12,Cc1sc2ncn(CC(=O)NCc3ccco3)c(=O)c2c1-c1ccc(F)cc1,active: 79.4 µM
13,Cc1ccc(S(=O)(=O)N2[C@@H](c3ccccc3F)C(C(=O)O)=CC[C@H]2c2ccc(Cl)c(Cl)c2)cc1,inactive
14,COc1ccc(/C=C2\SC(=N)N(c3nccs3)C2=O)cc1OC,"inconclusive: 56.2 µM [inhibitor, partial curve]"
15,CC(c1ccccc1)N1C(=O)c2ccc(C(=O)Nc3ccc(Br)cc3C(=O)O)cc2C1=O (stereo not given),active: 50.1 µM
16,Cc1ccc(SCc2cn3cc(Cl)ccc3n2)cc1,inactive
17,CCOC(=O)c1c(NC(=O)c2cc3ccccc3c(=O)o2)sc2c1CCCC2,inactive
18,NC(=O)[C@H]1CC2(CC(c3cccc(NC(=O)CC(c4ccccc4)c4ccccc4)c3)=NO2)CN1C(=O)CC(c1ccccc1)c1ccccc1 (stereo not given in full),"inconclusive: 89.1 µM [inhibitor, partial curve, poor fit]"
19,CCc1cc2c(=O)c(-c3nc(C)cs3)coc2cc1O,"inconclusive: 89.1 µM [inhibitor, partial curve, poor fit]"
20,COc1ccc2c(CC(=O)N3CCN(S(=O)(=O)c4ccc(F)cc4)CC3)coc2c1,active: 31.6 µM
21,Cc1ccc(C(=O)N/N=C/c2ccoc2)cc1C,"inconclusive: 35.5 µM [inhibitor, partial curve, poor fit]"
